According to PubChem BioAssay AID1347417 (National Center for Advancing Translational Sciences (NCATS), 2020):
The campaign covered roughly 120,000 compounds. About 5,300 (4.4%) were called active. This list was built around the results that the source calls inconclusive (neither active nor inactive); the mix of calls is not that of the screen. Calls come from the whole dose curve; as a rule, active = well fitted inhibition curve with a large enough effect; inconclusive = small, poorly fitted or top-dose-only effect; inactive = no such curve, though single readings can be large or run the other way. Potencies beside an inconclusive call are fits to weak or partial responses and may not hold up.

test: qHTS Primary assay for Inhibitors of Plasmodium falciparum Dd2 growth in vitro; note: nearly all actives have a fitted effect of over 65% in size; conditions: P. falciparum Dd2 growth, SYBR Green, 72 h; series mostly up to 28.9 µM
Procedure, shortened: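 Infected erythrocytes (Dd2, 0.3% parasitemia, 2.5% hematocrit final) are added to compound in RPMI-1640/Albumax II medium, grown 72 h at 37C in low oxygen, then lysed with saponin/Triton-X containing SYBR Green and read by fluorescence.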
Potency is the fitted concentration of half-maximal effect; tags give direction and shape of the fitted curve.

SMILES | Potency
COc1ccc(OC)c(NC(=O)c2cc(CN3CCCC3)on2)c1 | inconclusive: 17.8 µM [inhibitor, single point]
O=C1NCc2ccccc2CC12CCCN(Cc1ccccc1)C2 (stereo unspecified) | inconclusive: 1.58 µM [inhibitor, full curve]
CN1CCN(c2nc3c(S(=O)(=O)c4ccc(Br)cc4)nnn3c3ccsc23)CC1 | inconclusive: 17.8 µM [inhibitor, single point]
COc1ccc(CN2C=C(C(=O)OCc3noc(CC4CCCCC4)n3)C(C)=NS2(=O)=O)cc1 | inconclusive: 11.2 µM [inhibitor, single point]
C[S+](=O)([O-])N1CC2ON=C(C(=O)O)C2C1 (stereo unspecified) | inactive
Cc1cc(C(=O)N2C[C@@H](CO)[C@H](c3ccccn3)C2)no1 | inactive
Oc1ccc(Cl)cc1C1=Nc2ccccc2N=C(c2cccc(Br)c2)C1 | inconclusive: 17.8 µM [inhibitor, single point]
COc1cccc(CN2CCc3nc(N4CCN(c5ncccn5)CC4)ncc3C2)c1 | active: 11.2 µM
O=C(Cc1ccsc1)NC1CCN(c2cc(C(F)(F)F)ncn2)CC1 | inactive
COC1C(=O)N(c2cccc(F)c2)C12CCN(C(=O)Nc1ccccc1)CC2 (stereo unspecified) | inconclusive: 8.91 µM [inhibitor, single point]
CCc1sc(Nc2cccc(Cl)c2C)nc1-c1cc2cccc(OC)c2oc1=O | inconclusive: 17.8 µM [inhibitor, partial curve, poor fit]
CCCOc1ccc(-c2nonc2NC(=O)c2oc3ccc(C)cc3c2C)cc1OCCC | inactive
CCOC(=O)N1CCC(NC(=O)c2cnn(-c3cccc(Cl)c3C)c2C2CCN(C(=O)OC(C)(C)C)CC2)CC1 | inactive
COc1ccccc1CC(=O)N1CCCc2ncc(C(=O)Nc3ccc4[nH]ccc4c3)cc21 | inconclusive: 15.8 µM [inhibitor, single point]
Cc1ccc(NC(=O)CN2C(=O)NC3(CCC(C)CC3)C2=O)cc1C (stereo unspecified) | inactive
OCC(Cc1ccco1)Cn1ccnc1-c1ccccn1 (stereo unspecified) | inactive
O=C(c1cc(Cl)ccc1F)N1CCN(c2cc(-c3cccs3)[nH]n2)CC1 | inactive
O=C(O)C1=NOC2CN(Cc3cccc(C(F)(F)F)c3)CC12 (stereo unspecified) | inactive
CC(=O)N1CC2(CCN(Cc3ccc(Cl)cc3)CC2)Cc2ccccc21 | inactive
Cc1cnc(CN(C)C(=O)CC(c2ccccc2)c2ccc3c(c2)OCO3)[nH]1 (stereo unspecified) | inconclusive: 12.6 µM [inhibitor, partial curve]
COC(=O)[C@@H]1Cc2ncn(C(C)C)c2CN1S(=O)(=O)c1cccc2cccnc12 | inactive
Cc1cccn2c(=O)c3cc(C(=O)NCc4ccccc4)c(=N)n(CCOCCO)c3nc12 | inconclusive: 11.2 µM [inhibitor, single point]

SMILES | Potency
O=C1c2cnc(-c3ccc(Oc4ccccc4)cc3)nc2OCCN1CC1CC1 | active: 2.82 µM
COC(=O)C(CCSC)NC(=O)c1cc2c(n(-c3ccc(C)cc3)c1=O)CC(C)(C)CC2=O (stereo unspecified) | inconclusive: 20 µM [inhibitor, single point]
Cc1cccc(N(C)C(=O)Cn2c(=O)n(-c3ccc(F)cc3)c(=O)c3c2cc(C)n3C)c1 | inactive
Cc1n[nH]c(C)c1CNC(=O)C1Cn2cccc2C(=O)N1Cc1ccccc1 (stereo unspecified) | inconclusive: 7.94 µM [inhibitor, partial curve, poor fit]
Cc1ccc(S(=O)(=O)c2nc(-c3cccc(C)c3)oc2N2CCN(c3ccccc3)CC2)cc1 | active: 10 µM
COc1ccc2c(c1)CCc1c(C(=O)Nc3c(C)nn(Cc4ccc(Cl)c(Cl)c4)c3C)noc1-2 | inconclusive: 11.2 µM [inhibitor, single point]
COC(=O)c1sc2cccc(F)c2c1S(=O)(=O)N1CCN(c2ccc(F)cc2)CC1 | inconclusive: 20 µM [inhibitor, partial curve, poor fit]
O=C1NCc2ccccc2CC12CCN(Cc1ccccc1F)CC2 | inconclusive: 0.355 µM [inhibitor, full curve, poor fit]
O=C(NC1CCCC1)N1CC(Oc2ccccc2-c2nc(-c3ccccc3)no2)C1 | inconclusive: 7.08 µM [inhibitor, partial curve, poor fit]
CN(C)c1cccc(-c2nc(-c3nnn4c3COC(c3ccc(Cl)cc3)C4)no2)c1 (stereo unspecified) | inconclusive: 3.98 µM [inhibitor, partial curve, poor fit]
Cc1nc(CCNC(=O)C2CC2)no1 | inconclusive: 1.12 µM [inhibitor, full curve, poor fit]
O=[S+]1([O-])NCC2(CCN(CC3CCCCC3)CC2)Nc2ccccc21 | inconclusive: 6.31 µM [inhibitor, partial curve, poor fit]
Cc1cccc(C)c1-n1ncc(C(=O)N2CCN(c3ccccn3)CC2)c1C1CCN(C(=O)OC(C)(C)C)CC1 | inconclusive: 12.6 µM [inhibitor, single point]
Cc1nc(CCNS(=O)(=O)c2ccc3c(c2)OCCO3)no1 | inactive
CCCN1CCC2(CCN([S+](=O)([O-])c3ccccc3)CC2)Oc2ccccc21 | inconclusive: 11.2 µM [inhibitor, single point]
Cc1cc(C)cc(OCCCn2c(CCNC(=O)C3CCCCC3)nc3ccccc32)c1 | inconclusive: 10 µM [inhibitor, partial curve, poor fit]
CCCCC(CC)CNC(=O)C1CCC(CNS(=O)(=O)c2cccc3nsnc23)CC1 (stereo unspecified) | inconclusive: 12.6 µM [inhibitor, single point]
COc1cccc(Nc2ccc3c(n2)C(C)(C(=O)NC2CCC2)CN(C)C3)c1 (stereo unspecified) | inconclusive: 0.562 µM [inhibitor, full curve, poor fit]
O=C(Cc1ccccc1F)Nc1ccc2c(c1)CN(C(=O)[C@H]1CCCN1)CC2 | inconclusive: 20 µM [inhibitor, partial curve, poor fit]
CCOC(=O)c1[nH]c(C)c(CCC(=O)NCc2ccccc2Cl)c1C | inconclusive: 12.6 µM [inhibitor, single point]
CC(C)Oc1ccc(CN2CC(C(=O)NCc3ccncc3)C3(CCOCC3)C2)cc1 (stereo unspecified) | inconclusive: 2.51 µM [inhibitor, full curve]
CCOC(=O)C1CCN(C(=O)C2CCN(C3=NS(=O)(=O)C(c4ccc(C)c(C)c4)=C3C)CC2)CC1 | active: 3.98 µM

SMILES | Potency
O=C(c1ccc(C(F)(F)F)cc1)N1CCCC2(CN[S+](=O)([O-])c3ccccc3N2)C1 (stereo unspecified) | inactive
COc1ccccc1NC(=O)N1CCc2cc(OC)c(OC)cc2C1CNC(=O)NC(C)(C)C (stereo unspecified) | inconclusive: 8.91 µM [inhibitor, partial curve, poor fit]
CCCOc1cc(C)c2c(c1C)C[C@H]([C@H](C)C(=O)NCCN1CCOCC1)CC2 | inactive
CN(C)[C@H]1CCN(C(=O)c2ccccc2-n2cncn2)C[C@H]1CCC(=O)O | inactive
CC(C)c1ccc(C2N=C(N)Nc3nc4ccccc4n32)cc1 (stereo unspecified) | active: 3.16 µM
CC(C)C(=O)N1Cc2ccccc2CC2(CCCN(Cc3ccc(O)cc3)C2)C1 (stereo unspecified) | inconclusive: 7.08 µM [inhibitor, partial curve, poor fit]
COc1ccc(NC(=O)CSc2nc3c(oc4ccccc43)c(=O)n2-c2ccc(C)c(C)c2)cc1 | inconclusive: 17.8 µM [inhibitor, partial curve, poor fit]
O=C(c1ccc2c(c1)N(Cc1ccc(Cl)cc1)C(=O)c1ccccc1S2(=O)=O)N1CCCCC1 | inconclusive: 17.8 µM [inhibitor, single point]
O=C(c1ccc(Cl)cc1)N1CC2(CCCN2Cc2ccc(C(F)(F)F)cc2)Cc2ccccc21 (stereo unspecified) | active: 10 µM
CNC(=O)c1cccc(-c2cnc(Nc3ccc(F)c(Cl)c3)c3c2CCO3)c1 | active: 11.2 µM
COc1ccc(C(=O)N2CCC(c3nc(C4CCOCC4)no3)C2)cc1OC (stereo unspecified) | inactive
Cc1cc(C(=O)NC2CC(=O)N(Cc3ccccc3C(F)(F)F)C2)nn1C (stereo unspecified) | inactive
Cc1nc(C)n(CCCNc2nccc(-c3ccccn3)n2)n1 | inactive
CC(C)CCNC(=O)C1CCC(Cn2c(=O)c3sccc3n(CC(=O)NC(C)C)c2=O)CC1 (stereo unspecified) | inconclusive: 12.6 µM [inhibitor, single point]
Cc1ccc(N2C(=O)c3[nH]nc(-c4ccc(Cl)cc4)c3C2c2ccc(F)cc2)cc1 (stereo unspecified) | inconclusive: 17.8 µM [inhibitor, single point]
O=C(Nc1nccs1)[C@@H]1C[C@@H](c2ccc(F)cc2)N(Cc2ccccc2)C1 | inconclusive: 5.62 µM [inhibitor, single point]
COc1cccc(C(=O)Nc2ccc(-c3cn4cccnc4n3)cc2)c1OC | inconclusive: 5.62 µM [inhibitor, partial curve, poor fit]
Clc1ccc(C2Cn3nnc(-c4noc(C5CC5)n4)c3CO2)cc1 (stereo unspecified) | inconclusive: 20 µM [inhibitor, single point]
O=C(C1CC(=O)N(c2n[nH]c3cccc(F)c23)C1)N1CCN(c2cccc(Cl)c2)CC1 (stereo unspecified) | inconclusive: 11.2 µM [inhibitor, partial curve, poor fit]
CCOc1ccc(NC(=O)N2CCc3cc(OC)c(OC)cc3C2CNC(C)=O)cc1 (stereo unspecified) | inactive
CN1CCC2(C1)CN(CC1CC1)c1ccc(C(=O)NC3COC3)cc12 (stereo unspecified) | inconclusive: 12.6 µM [inhibitor, single point]
Cc1ccc(S(=O)(=O)N[C@@H]2CN(C)C[C@H]2CN(C)C)cc1F | inconclusive: 1.41 µM [inhibitor, full curve, poor fit]
